Experimental data published in PubChem BioAssay AID1508623 (National Center for Advancing Translational Sciences (NCATS), 2021).
In all, about 48,000 compounds went through this assay and about 450 (0.94%) were called active. About 19% were inconclusive and are not listed. Calls follow the shape of the dose curve; as a rule, active = well fitted inhibition curve with a large enough effect; inconclusive = small, poorly fitted or top-dose-only effect; inactive = no such curve, though single readings can be large or run the other way. The list shows a part of the results.

Test: Primary qHTS for Identification of Small Molecule Inhibitors of Huntingtin Promoter Activity; also: nearly all actives have a fitted effect of over 50% in size
Settings: HEK293 HTT promoter firefly luciferase reporter (activity 0% = vehicle and -100% = no light), 24 h; series mostly up to 57.5 µM; activity change, negative = inhibition: at the top concentration
Summary of the method: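 Firefly luciferase signal from promoter-reporter HEK293 cells was scaled between vehicle (0%) and zero RLU (-100%). Compounds were tested at final concentrations of up to 57.5 uM over 24 h at 37 degrees C. PTC124 at 50 uM final served as control inhibitor.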
Potency is read from the fitted curve at half-maximal effect.

Row | SMILES | activity change, negative = inhibition | Potency
1 | CCOc1ccc(-c2nc(C#N)c(NCCCOC)o2)cc1 | inactive: -15.1% | 
2 | Cc1coc2c(C)c3oc(=O)c(CCC(=O)NCCc4ccc(Cl)cc4)c(C)c3cc12 | inactive: -12.4% | 
3 | COCCCNC(=O)c1c(NC(=O)Cc2coc3cc(C)cc(C)c23)sc2c1CCCC2 | inactive: -20.5% | 
4 | CCc1ccc(CNC(=O)CSc2cc(=O)n(C)c3ccc(Cl)cc23)cc1 | inactive: -17.3% | 
5 | CCN(CCCNC(=O)c1cc2c(=O)n(CC)c3ccccc3c2s1)c1ccccc1 | inactive: -10.6% | 
6 | CC(NC(=O)CCSCc1ccccc1F)c1ccccc1 (centres undefined) | inactive: 30.8% | 
7 | O=C(c1ccc2c(c1)N(Cc1ccccc1F)C(=O)c1ccccc1S2(=O)=O)N1CCCC1 | inactive: -7.48% | 
8 | COc1ccc(C(=O)N(Cc2cc(OC)c(OC)c(OC)c2)CC2CCCO2)cc1 (centres undefined) | inactive: -1.85% | 
9 | Cc1cc(F)ccc1NCc1ccccc1-c1nnc(-c2ccccc2Cl)o1 | inactive: 19.4% | 
10 | Cc1ccc(-c2noc(-c3nnn(CC(=O)Nc4cc(C)cc(C)c4)c3N)n2)cc1 | inactive: 0.557% | 
11 | O=C(CSc1nccn1Cc1ccc(F)cc1)Nc1ccc2c(c1)OCCO2 | inactive: 14.5% | 
12 | CCCNC(=O)CSc1nc2nc(C)c(Cc3ccccc3Cl)c(C)n2n1 | inactive: -18% | 
13 | COc1ccc(CCCc2nnc(SCC(=O)Nc3ccc(C)cc3C)o2)cc1 | inactive: -19.8% | 
14 | CCN(CC)S(=O)(=O)c1cc(-c2onc(C)c2C)ccc1OC | inactive: -17.4% | 
15 | CCc1ccc(C(=O)c2cn(CC(=O)Nc3ccc(OC)cc3OC)c3ccc(CC)cc3c2=O)cc1 | inactive: -25.5% | 
16 | COc1cccc(C(=O)Nc2cccc(C(=O)OCc3cc(=O)n4nc(C(C)C)sc4n3)c2)c1 | inactive: 18.8% | 
17 | Cc1ccc(N(C)C(=O)c2cnc(N3CCOCC3)c3ccccc23)cc1C | inactive: -8.96% | 
18 | CCOc1ccc(-c2nc(SCC(=O)NCCOC)c(-c3ccc(OC)c(OC)c3)[nH]2)cc1 | inactive: -3.82% | 
19 | CSc1nc2sc3c(c2c(=O)n1-c1ccc(F)c(Cl)c1)CCN(C(C)=O)C3 | inactive: -6.62% | 
20 | Cc1cc(C)cc(NC(=O)CSc2nc(-c3cccc(Cl)c3)nc3c2Cc2c(CO)cnc(C)c2O3)c1 | inactive: -5.68% | 

Row | SMILES | activity change, negative = inhibition | Potency
21 | CCOC(=O)NC1(C(F)(F)F)NC(=O)N(c2ccc(C)c(C)c2)C1=O (centres undefined) | inactive: -15.7% | 
22 | O=C(CSC1=Nc2ccccc2C2=NC(Cc3ccccc3)C(=O)N12)Nc1ccccc1F (centres undefined) | inactive: -27.3% | 
23 | Cc1cc(C)cc(OCC(=O)Nc2ccc(S(=O)(=O)Nc3onc(C)c3C)cc2)c1 | inactive: -4.76% | 
24 | COc1ccc(-n2nc(C(=O)Nc3cccc(C(F)(F)F)c3)c3c4ccccc4n(C)c3c2=O)cc1 | inactive: -16.8% | 
25 | Cc1nn(CC(=O)NCc2ccccc2Cl)c(=O)c2nn(-c3ccccc3)c(C)c12 | inactive: 3.76% | 
26 | CCN1CCC[C@H]1CNC(=O)c1c(OC)ccc(Br)c1OC | inactive: 2.35% | 
27 | Cc1ccccc1NC(=O)CSC1=Nc2ccccc2C2=NC(CCC(=O)NCc3ccccc3)C(=O)N12 (centres undefined) | inactive: -17.3% | 
28 | Cc1nc(CC(=O)Nc2ccc(N(C)C)cc2)cs1 | inactive: 28% | 
29 | COc1ccccc1CNC(=O)CN1C(=O)COc2ccc(S(=O)(=O)N3CCCCC3)cc21 | inactive: -9.77% | 
30 | O=S(=O)(NCc1cccc(Br)c1)c1ccc(-c2cc(C(F)(F)F)on2)s1 | inactive: -10.7% | 
31 | Cc1cc(C)cc(N2C(=O)N(CC(=O)c3ccc(Br)cc3)c3ccccc3S2(=O)=O)c1 | inactive: -23.3% | 
32 | COC(=O)c1sccc1S(=O)(=O)N(CC(=O)NCc1ccc(C)cc1)c1ccc(Cl)cc1 | inactive: -6.73% | 
33 | CCN(CC)C(=O)c1sc2c(c1C)c(=O)n(-c1ccc(Cl)c(Cl)c1)c(=O)n2Cc1cc(=O)n2c(C)cccc2n1 | inactive: 0% | 
34 | CCCCn1cc(S(=O)(=O)c2ccc(OC)cc2)c(=O)c2cc(F)c(N3CCCC3)cc21 | inactive: 12.5% | 
35 | Cc1ccc(-c2nc(C)c(CCNS(=O)(=O)c3ccccc3F)s2)cc1 | inactive: -12.4% | 
36 | CN1C(=O)C(C)(C)c2cc(S(=O)(=O)NCc3ccc(C(=O)Nc4ccc(Cl)cc4)cc3)ccc21 |  | active: 17.8 µM
37 | Cc1cccc(NC(=O)N2CCC(CN3CCc4ccccc4C3)CC2)c1C | inactive: -16.5% | 
38 | CCOc1ccc(NC(=O)Cn2cc(C(=O)c3ccc(C)c(C)c3)c(=O)c3cc4c(cc32)OCCO4)cc1 | inactive: -7.78% | 
39 | CCOC(=O)c1cccc(NC(=O)CN2C(=O)CC(C)(C)Sc3ccccc32)c1 | inactive: -27.2% | 
40 | CCOC(=O)c1cc(S(=O)(=O)N2CCN(c3ccc(OC)cc3)CC2)[nH]n1 | inactive: -30.8% | 

Row | SMILES | activity change, negative = inhibition | Potency
41 | COc1ccc(CCNC(=O)CCCn2c(=O)c3ccccc3n(Cc3ccccc3C)c2=O)cc1OC | inactive: 0.305% | 
42 | Cc1ccc(-n2ncc(C(=O)NCCN3CCc4ccccc4C3)c2C2CCN(C(=O)OC(C)(C)C)CC2)cc1 | inactive: -28.4% | 
43 | Cc1cccc(C)c1OCc1nc2c3cnn(-c4cccc(F)c4)c3ncn2n1 | inactive: -2.21% | 
44 | Cc1ccc(Nc2c(-c3ccc(N4CCOCC4)cc3)nc3ncccn23)cc1 | inactive: 5.78% | 
45 | Cc1ccc(C(=O)Nc2c(C(=O)NCc3ccc(Cl)cc3)sc3nc(C)cc(C)c23)cc1 | inactive: -11.7% | 
46 | CCN1CCN(c2cc3c(cc2F)c(=O)c(C(=O)O)cn3C2CC2)CC1 | inactive: -1.2% | 
47 | COc1cccc(NC(=O)CSc2nc3ccccc3nc2N2CCOCC2)c1 | inactive: -29% | 
48 | CN(CC(=O)Nc1cccc(C(F)(F)F)c1)S(=O)(=O)c1ccc2[nH]c3c(c2c1)CCCC3 | inactive: -19.4% | 
49 | CCc1ccc(CN2C(=O)c3ccccc3C2C(=O)NCCc2ccc(OC)c(OC)c2)cc1 (centres undefined) | inactive: -14.5% | 
50 | COc1ccc(NC(=O)c2cc3c(=O)[nH]c4ccccc4c3n2C)cc1Cl | inactive: -1.5% | 
51 | COc1ccc(CC(=O)NCc2nc3cccnc3n2Cc2ccc(F)cc2)cc1OC | inactive: -12.2% | 
52 | Cc1ccccc1NC(=O)c1sc2nc3c(cc2c1N)CCCC3 | inactive: 17.9% | 
53 | CCOc1cc2[nH]c(=O)n(Cc3ccc(C(=O)NCCN(CC)CC)cc3)c(=O)c2cc1OCC | inactive: -13% | 
54 | CCCCNc1sc(S(=O)(=O)CC)nc1S(=O)(=O)c1ccc(C)cc1 | inactive: -19.6% | 
55 | CNS(=O)(=O)c1cn(CC(=O)Nc2ccc(F)cc2F)cc1S(=O)(=O)NC | inactive: -6.57% | 
56 | Cc1ccc(N2CC(c3nnc(Cc4ccc(Cl)cc4)o3)CC2=O)cc1 (centres undefined) | inactive: -31.5% | 
57 | CC(=O)Nc1cc(C(=O)NCc2ccccc2)ccc1Sc1ccc(C)cc1 | inactive: -19.2% | 
58 | Cc1cccc(C(=O)Nc2ccc(-c3nc4ccccc4s3)c(C)c2)c1 | inactive: 31.5% | 
59 | CO[C@H]1C[C@@H]2CC[C@@H](C)[C@@](O)(O2)C(=O)C(=O)N2CCCC[C@@H]2C(=O)O[C@H]([C@H](C)C[C@@H]2CC[C@H](OC(=O)C(C)(CO)CO)[C@H](OC)C2)CC(=O)[C@H](C)C=C(C)[C@@H](O)[C@@H](OC)C(=O)[C@H](C)C[C@H](C)C=CC=CC=C1C | inactive: -16.7% | 
